{"source": "paper PMC4336329", "about": "(PLoS ONE, 2015)", "note": "The whole screen tested about 310,000 compounds, of which about 2,200 (0.71%) showed an effect of 50% or more. The effect is printed as a negative number. Some of the results follow."}
{"target": "human ether-à-go-go-related gene (hERG) potassium channel (human, UniProt Q12809)", "sequence (Q12809 whole entry, looked up)": "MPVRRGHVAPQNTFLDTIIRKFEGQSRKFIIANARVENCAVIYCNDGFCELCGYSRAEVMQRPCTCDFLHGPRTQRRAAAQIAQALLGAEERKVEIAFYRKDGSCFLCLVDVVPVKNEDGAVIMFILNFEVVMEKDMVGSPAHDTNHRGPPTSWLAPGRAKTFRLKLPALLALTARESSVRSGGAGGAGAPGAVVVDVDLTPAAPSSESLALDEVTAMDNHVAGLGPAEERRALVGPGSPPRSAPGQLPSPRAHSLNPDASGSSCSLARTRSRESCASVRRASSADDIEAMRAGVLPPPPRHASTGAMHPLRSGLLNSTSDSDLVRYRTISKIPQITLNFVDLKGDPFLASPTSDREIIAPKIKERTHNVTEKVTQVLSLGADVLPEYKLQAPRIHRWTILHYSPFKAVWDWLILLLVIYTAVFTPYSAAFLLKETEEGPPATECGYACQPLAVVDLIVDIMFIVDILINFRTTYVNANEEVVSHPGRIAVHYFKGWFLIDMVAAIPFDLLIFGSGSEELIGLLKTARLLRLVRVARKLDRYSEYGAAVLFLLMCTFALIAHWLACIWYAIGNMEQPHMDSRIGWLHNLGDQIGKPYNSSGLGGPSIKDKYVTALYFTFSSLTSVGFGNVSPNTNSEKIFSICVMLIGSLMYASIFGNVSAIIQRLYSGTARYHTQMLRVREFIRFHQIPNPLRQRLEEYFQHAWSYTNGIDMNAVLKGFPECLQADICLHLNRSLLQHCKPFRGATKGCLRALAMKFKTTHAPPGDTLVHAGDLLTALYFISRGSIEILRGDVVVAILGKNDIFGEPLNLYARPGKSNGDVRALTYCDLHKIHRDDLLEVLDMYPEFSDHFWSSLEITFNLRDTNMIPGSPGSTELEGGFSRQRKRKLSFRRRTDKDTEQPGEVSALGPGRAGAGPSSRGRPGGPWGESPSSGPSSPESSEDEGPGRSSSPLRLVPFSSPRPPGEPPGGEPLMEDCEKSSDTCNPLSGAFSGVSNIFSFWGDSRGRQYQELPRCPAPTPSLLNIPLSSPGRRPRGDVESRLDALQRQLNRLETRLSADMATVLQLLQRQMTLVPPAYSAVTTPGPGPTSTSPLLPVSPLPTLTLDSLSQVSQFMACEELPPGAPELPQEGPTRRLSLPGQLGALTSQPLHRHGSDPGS", "assay": "primary screen, population patch clamp on CHO cells stably expressing hERG", "units": {"hERG current change (%, negative = inhibition) at 1uM": "%"}}
{"compound": "CCCNc1nc(C)nc2c1cnn2CCc1ccccc1", "hERG current change (%, negative = inhibition) at 1uM": 16.1}
{"compound": "Cc1ccc(COn2c(-c3ccc(Cl)cc3Cl)nc3ncccc32)cc1", "hERG current change (%, negative = inhibition) at 1uM": -12.8}
{"compound": "Cc1nn(Cc2ccccc2Cl)c(C)c1C(=O)N1CCN(c2ccccc2)CC1", "hERG current change (%, negative = inhibition) at 1uM": -32.3}
{"compound": "COc1cc(/C=N/NC(=O)c2cccc(S(=O)(=O)N3CCOCC3)c2)cc(OC)c1O", "hERG current change (%, negative = inhibition) at 1uM": 0.944}
{"compound": "O=C(Nc1ccc(NC(=O)c2ccc3c(c2)OCO3)cc1)c1cccc(Cl)c1", "hERG current change (%, negative = inhibition) at 1uM": 17.4}
{"compound": "CCOC(=O)C(C)n1cnc2sc(C)c(C)c2c1=O", "note": "(stereo not drawn)", "hERG current change (%, negative = inhibition) at 1uM": 14.1}
{"compound": "Cc1cc(OCC(=O)NC2CC(C)(C)NC(C)(C)C2)c2c(C)c(C)c(=O)oc2c1", "hERG current change (%, negative = inhibition) at 1uM": 13.8}
{"compound": "Cc1ccc2[nH]c(=O)c(NC(N)=S)nc2c1", "hERG current change (%, negative = inhibition) at 1uM": -4.32}
{"compound": "COc1ccc(OCC(=O)Nc2ccc(S(=O)(=O)Nc3cc(C)nc(C)n3)cc2)cc1", "hERG current change (%, negative = inhibition) at 1uM": 16.5}
{"compound": "CN(C)c1ccc(N/C=C/C(=O)C(F)(F)F)cc1", "hERG current change (%, negative = inhibition) at 1uM": 17.7}
{"compound": "CCOc1ccc(NC(=O)c2cccc3ccccc23)cc1", "hERG current change (%, negative = inhibition) at 1uM": 9.75}
{"compound": "CCC(C)(C)NC(=O)C(c1ccc(F)cc1)N(Cc1ccccc1)C(=O)c1cnccn1", "note": "(stereo not drawn)", "hERG current change (%, negative = inhibition) at 1uM": -5.26}
{"compound": "Cc1ccc(C(=O)Nc2ccc(N3CCN(C)CC3)cc2)c(Cl)c1", "hERG current change (%, negative = inhibition) at 1uM": 10.6}
{"compound": "COc1ccccc1CNS(=O)(=O)c1ccc2c(c1)oc(=O)n2C", "hERG current change (%, negative = inhibition) at 1uM": -8.05}
{"compound": "O=[N+]([O-])c1ccc(NCCCN2CCOCC2)c2ncccc12", "hERG current change (%, negative = inhibition) at 1uM": 21.3}
{"compound": "CC1(C)Cc2nc3sc4c(N(CCO)CCO)ncnc4c3cc2CO1", "hERG current change (%, negative = inhibition) at 1uM": 10.4}
{"compound": "CCC(=O)c1ccc(NC(C)=O)cc1O", "hERG current change (%, negative = inhibition) at 1uM": 10.6}
{"compound": "CCOc1ccc(C(C)=O)cc1CN1C(=O)NC(C)(C2CC2)C1=O", "note": "(stereo not drawn)", "hERG current change (%, negative = inhibition) at 1uM": 8.71}
{"compound": "CCOC(=O)c1c(NC(=O)CSc2nc3ccccc3[nH]2)sc2c1CC(C)(C)NC2(C)C", "hERG current change (%, negative = inhibition) at 1uM": -0.588}
{"compound": "CCC(=O)N1CCN(c2nc(-c3ccccc3)c3c(c2C#N)CCCC3)CC1", "hERG current change (%, negative = inhibition) at 1uM": 13.8}
{"compound": "Cc1cc(C(F)F)nn1CC(=O)NC1C(=O)N2C(C(=O)O)=C(CSc3nnnn3C)CSC12", "note": "(stereo not drawn)", "hERG current change (%, negative = inhibition) at 1uM": -6.06}
{"compound": "CC1(c2cccc([N+](=O)[O-])c2)CC(C)(C)N(C(=O)c2ccccc2)c2ccccc21", "note": "(stereo not drawn)", "hERG current change (%, negative = inhibition) at 1uM": 8.47}
{"compound": "CCn1cc(C(=O)NCCc2ccccc2C)c(=O)c2ccc(C)nc21", "hERG current change (%, negative = inhibition) at 1uM": 15.5}
{"compound": "O=C(O)C1C2CC3C(OC(=O)C31)C2Cl", "note": "(stereo not drawn)", "hERG current change (%, negative = inhibition) at 1uM": 10.1}
{"compound": "COc1ccc(C(=O)N2CCCC2(C#N)c2ccccc2)cc1[N+](=O)[O-]", "note": "(stereo not drawn)", "hERG current change (%, negative = inhibition) at 1uM": 1.31}
{"compound": "COCc1ccc(CN2CCCC(CCC(=O)NCc3ccc(C)o3)C2)o1", "note": "(stereo not drawn)", "hERG current change (%, negative = inhibition) at 1uM": -9.05}
{"compound": "CN(c1ccccc1)S(=O)(=O)c1cccc(C(=O)N2CCN(c3ccccn3)CC2)c1", "hERG current change (%, negative = inhibition) at 1uM": 0.548}
{"compound": "CCc1ccccc1NC(=O)c1ccc(-c2csc(C)n2)cc1", "hERG current change (%, negative = inhibition) at 1uM": 7.98}
{"compound": "Cc1noc(C)c1C(=O)Nc1nc(C23CC4CC(CC(C4)C2)C3)cs1", "hERG current change (%, negative = inhibition) at 1uM": 7.46}
{"compound": "CC1=NCCN1S(=O)(=O)c1c(C(C)C)cc(C(C)C)cc1C(C)C", "hERG current change (%, negative = inhibition) at 1uM": 14.6}
{"compound": "CN(C)c1ccc(/C=C2/C=C(c3ccc4c(c3)CCCC4)OC2=O)cc1", "hERG current change (%, negative = inhibition) at 1uM": 11.3}
{"compound": "Cc1ccc(NC(=O)CSc2nnc(Cn3cnc4ccccc43)o2)cc1", "hERG current change (%, negative = inhibition) at 1uM": 5.35}
{"compound": "COc1ccccc1C(=O)N/C(=C\\c1ccc(Br)cc1)C(=O)NCC(=O)O", "hERG current change (%, negative = inhibition) at 1uM": 0.366}
{"compound": "COc1ccc(N2CCN(CC(O)COc3ccccc3[N+](=O)[O-])CC2)cc1.Cl", "note": "(stereo not drawn)", "hERG current change (%, negative = inhibition) at 1uM": -13.9}
{"compound": "COc1cccc(C(=O)NCCSCc2c(F)cccc2Cl)c1", "hERG current change (%, negative = inhibition) at 1uM": 9.61}
{"compound": "COc1ccc(CCNC(=O)N2c3ccccc3Sc3ccccc32)cc1", "hERG current change (%, negative = inhibition) at 1uM": 10.9}
{"compound": "Cc1cccc(C(=O)Oc2ccc(/C=N/NC(=O)Cc3ccc([N+](=O)[O-])cc3)cc2)c1", "hERG current change (%, negative = inhibition) at 1uM": 9.89}
{"compound": "O=C(Cc1ccccc1)NNC(=O)c1cccs1", "hERG current change (%, negative = inhibition) at 1uM": 6.89}
{"compound": "Cc1ccc2c(c1)c1c3n2CCNC3CCC1.Cl", "note": "(stereo not drawn)", "hERG current change (%, negative = inhibition) at 1uM": 18.8}
{"compound": "CCOc1ccc(CNC(=O)C2CCC(=O)N2C2CCCC2)cc1OC", "note": "(stereo not drawn)", "hERG current change (%, negative = inhibition) at 1uM": 5.53}
{"compound": "CSc1[nH]c(=O)c(C(=O)O)cc1C#N", "hERG current change (%, negative = inhibition) at 1uM": 13}
{"compound": "Nc1cccc([N+](=O)[O-])c1", "hERG current change (%, negative = inhibition) at 1uM": 5.03}
{"compound": "O=C(Nc1ccc(Cl)cc1)Nc1ccon1", "hERG current change (%, negative = inhibition) at 1uM": 12.9}
{"compound": "CN(C(=O)c1ccccc1C(=O)OCC(=O)Nc1ccccc1)c1ccccc1", "hERG current change (%, negative = inhibition) at 1uM": 11}
{"compound": "CC(=O)C1=C(O)C(=O)N(Cc2ccco2)C1c1ccccc1", "note": "(stereo not drawn)", "hERG current change (%, negative = inhibition) at 1uM": 13.3}
{"compound": "Cc1ccc(Cn2ncc3c(NCCN(C)C)ncnc32)cc1", "hERG current change (%, negative = inhibition) at 1uM": 1.2}
{"compound": "CNC(=O)C12CC3CC(C1)CC(c1ccc(C)cc1)(C3)C2", "hERG current change (%, negative = inhibition) at 1uM": 10}
{"compound": "CCOC(=O)c1c(C)[nH]c(C(=O)COC(=O)CCC(=O)c2ccc3c(c2)OCCO3)c1C", "hERG current change (%, negative = inhibition) at 1uM": -2.46}
{"compound": "CCOC(=O)C1=C(C)N=c2s/c(=C\\c3cccc(OCC(=O)O)c3)c(=O)n2C1c1ccccc1", "note": "(stereo not drawn)", "hERG current change (%, negative = inhibition) at 1uM": 7.53}
{"compound": "C/C(=N\\NC(=O)CSc1nc(C)[nH]c1[N+](=O)[O-])c1ccc(F)cc1", "hERG current change (%, negative = inhibition) at 1uM": 9.08}
{"compound": "COCCNC(=O)C(c1ccc(F)cc1)N(C(=O)CCC(=O)Nc1ccccn1)c1cccc(C)c1", "note": "(stereo not drawn)", "hERG current change (%, negative = inhibition) at 1uM": 12.8}
{"compound": "CCOC(OCC)P(=O)(C(C)C)C(C)C", "hERG current change (%, negative = inhibition) at 1uM": 4.5}
{"compound": "Cc1nnc(SCC2=C(C(=O)O)N3C(=O)C(NC(=O)C(C)n4nc(C(F)(F)F)cc4C)C3SC2)s1", "note": "(stereo not drawn)", "hERG current change (%, negative = inhibition) at 1uM": 14}
{"compound": "CCC(=O)c1ccc(/C=C/c2nc3ccccc3n2C)o1", "hERG current change (%, negative = inhibition) at 1uM": 2.57}
{"compound": "C=CCn1c(SCC(=O)NNC(=O)Nc2cccc(Cl)c2)nnc1-c1ccccc1", "hERG current change (%, negative = inhibition) at 1uM": 6.04}
{"compound": "c1ccc(-c2ccc(OCCOCCn3cncn3)cc2)cc1", "hERG current change (%, negative = inhibition) at 1uM": 6.91}
{"compound": "Cc1ccc(S(=O)(=O)CCc2nc3ccccc3s2)cc1", "hERG current change (%, negative = inhibition) at 1uM": 8.2}
